Test results from patent US20260217856A1 (MIE UNIVERSITY, published 2026).
Read-outs that look alike come from different tables or passages of the source. Each block holds one binder with its values, some of them ahead of it.

Key:
Experiment in all cases: cell-based or functional assay
[1] = molecular target: complex of a PRAME derived peptide and HLA-A24 (human)
[2] = molecular target: complex of a PRAME derived peptide and HLA-A24 (human); remark: listed apart in the source
[3] = molecular target: complex of a MAGE-A4 derived peptide and HLA-A2 (human)

B1: PRAME-zG-m1 (other)
chain: QVQLQVQLVQSGAEVKKPGSSVKVSCKASGGTFSSYAISWVRQAPGQGLEWMGGIIPIFGTANYAQKFQGRVTITADESTGTAYMELSSLRSEDTAVYYCARHHSNYYYYGMDVWGQGTTVTVSRGGGGSGGGGSGGGGSMASYELTQPLSVSVALGQTARITCGGNNIGSKNVHWYQQKPGQAPVLVIYRDSNRPSGIPERFRGRNSGNTARLTISRAQAGDEADYYCQVWDSSHVFGTGTKVTVLGQPKANPTVTLFPPSSEELQANKATLVCLISDFYPGAVTVAWKADGSPVKAGVETTKPSKQSNNKYAASSYLSLTPEQWKSHRSYSCQVTHEGSTVEKTVAPTECSARQTRFWVLVVVGGVLACYSLLVTVAFIIFWVRL[about 120 residues left out here]RSQCMWPRETQLLLEVPPSTEDARSCQFPEEERGERSAEEKGRLGDLWV
cytotoxic activity, effector:target 1:1, SK-MEL-124 target cells [1]: 2.37 ratio to WT CAR-T (1.00) | cytotoxic activity, effector:target 3:1, SK-MEL-124 target cells [1]: 2.96 ratio to WT CAR-T (1.00)

B3: PRAME-zG-Km3 (other)
chain: QVQLQVQLVQSGAEVKKPGSSVKVSCKASGGTFSSYAISWVRQAPGQGLEWMGGIIPIFGTANYAQKFQGRVTITADESTGTAYMELSSLRSEDTAVYYCARHHSNYYYYGMDVWGQGTTVTVSRGGGGSGGGGSGGGGSMASYELTQPLSVSVALGQTARITCGGNNIGSKNVHWYQQKPGQAPVLVIYRDSNRPSGIPERFSGKNSGNKAKLTISRAQAGDEADYYCQVWDSSHVFGTGTKVTVLGQPKANPTVTLFPPSSEELQANKATLVCLISDFYPGAVTVAWKADGSPVKAGVETTKPSKQSNNKYAASSYLSLTPEQWKSHRSYSCQVTHEGSTVEKTVAPTECSARQTRFWVLVVVGGVLACYSLLVTVAFIIFWVRL[about 120 residues left out here]RSQCMWPRETQLLLEVPPSTEDARSCQFPEEERGERSAEEKGRLGDLWV
IFNγ production, co-culture with SK-MEL-124 [2]: 0.87 ratio to WT CAR-T (1.00) | cytotoxic activity, effector:target 1:1, SK-MEL-124 target cells [2]: 1.71 ratio to WT CAR-T (1.00) | cytotoxic activity, effector:target 3:1, SK-MEL-124 target cells [2]: 1.16 ratio to WT CAR-T (1.00)

Second part, led by results:

IFNγ production, co-culture with SK-MEL-124 [1]: 0.56 ratio to WT CAR-T (1.00)
B2: PRAME-zG-m2 (other)
chain: QVQLQVQLVQSGAEVKKPGSSVKVSCKASGGTFSSYAISWVRQAPGQGLEWMGGIIPIFGTANYAQKFQGRVTITADESTGTAYMELSSLRSEDTAVYYCARHHSNYYYYGMDVWGQGTTVTVSRGGGGSGGGGSGGGGSMASYELTQPLSVSVALGQTARITCGGNNIGSKNVHWYQQKPGQAPVLVIYRDSNRPSGIPERFRGSNSGNRARLTISRAQAGDEADYYCQVWDSSHVFGTGTKVTVLGQPKANPTVTLFPPSSEELQANKATLVCLISDFYPGAVTVAWKADGSPVKAGVETTKPSKQSNNKYAASSYLSLTPEQWKSHRSYSCQVTHEGSTVEKTVAPTECSARQTRFWVLVVVGGVLACYSLLVTVAFIIFWVRL[about 120 residues left out here]RSQCMWPRETQLLLEVPPSTEDARSCQFPEEERGERSAEEKGRLGDLWV
cytotoxic activity, effector:target 3:1, SK-MEL-124 target cells [1]: 1.84 ratio to WT CAR-T (1.00)

IFNγ production, co-culture with SK-MEL-37 [3]: 0.47 ratio to WT CAR-T (1.00)
B4: MAGE-A4-zG-m2 (other)
chain: QVQLQVQLVQSGAEVKKPGSSVKVSCKASGGTFSSYAISWVRQAPGQGLEWMGGIIPIFGTANYAQKFQGRVTITADKSTSTAYMELSSLRSEDTAVYYCARSPRRAYHDAFDIWGQGTMVTVSSGGGGSGGGGSGGGGSSYELTQPPSMSVAPGKTASITCGGDHIGSKSVHWYQQKPGQAPVLVVYDDSDRPSGIPERFRGRNRGNTARLTISGTQAMDEADYYCLAWDSSTAIFGGGTQLTVLVGQPKANPTVTLFPPSSEELQANKATLVCLISDFYPGAVTVAWKADGSPVKAGVETTKPSKQSNNKYAASSYLSLTPEQWKSHRSYSCQVTHEGSTVEKTVAPTECSARQTRFWVLVVVGGVLACYSLLVTVAFIIFWVRL[about 120 residues left out here]RSQCMWPRETQLLLEVPPSTEDARSCQFPEEERGERSAEEKGRLGDLWV
cytotoxic activity, effector:target 1:1, SK-MEL-37 target cells [3]: 1.6 ratio to WT CAR-T (1.00) | cytotoxic activity, effector:target 3:1, SK-MEL-37 target cells [3]: 1.41 ratio to WT CAR-T (1.00)
